Source: a protein production outcome set (Wang et al. 2014)

Test: label from the status in PepcDB records
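Also: failed if final PepcDB status was selected cloned or expressed and not failed if soluble or beyond.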

Sequence	protein production
MEWDNGTGQALGLPPTTCVYRENFKQLLLPPVYSAVLAAGLPLNICVITQICTSRRALTRTAVYTLNLALADLLYACSLPLLIYNYAQGDHWPFGDFACRLVRFLFYANLHGSILFLTCISFQRYLGICHPLAPWHKRGGRRAAWLVCVAVWLAVTTQCLPTAIFAATGIQRNRTVCYDLSPPALATHYMPYGMALTVIGFLLPFAALLACYCLLACRLCRQDGPAEPVAQERRGKAARMAVVVAAAFAISFLPFHITKTAYLAVRSTPGVPCTVLEAFAAAYKGTRPFASANSVLDPILFYFTQKKFRRRPHELLQKLTAKWQRQGR	not failed
MGNHTWEGCHVDSRVDHLFPPSLYIFVIGVGLPTNCLALWAAYRQVQQRNELGVYLMNLSIADLLYICTLPLWVDYFLHHDNWIHGPGSCKLFGFIFYTNIYISIAFLCCISVDRYLAVAHPLRFARLRCVKTAVAVSSVVWATELGANSAPLFHDELFRDRYNHTFCFEKFPMEGWVAWMNLYRVFVGFLFPWALMLLSYRGILRAVRGSVSTERQEKAKIKRLALSLIAIVLVCFAPYHVLLLSRSAIYLGRPWDCGFEERVFSAYHSSLAFTSLNCVADPILYCLVNEGARSDVAKALHNLLRFLASDKPQEMANASLTLETPLTSKRNSTAKAMTGSWAATPPSQGDQVQLKMLPPAQ	failed
MNESRWTEWRILNMSSGVVNVSERHSCPLGFGHYSVVDVCIFETVVIVLLTFLIIAGNLTVIFVFHCAPLLHHYTTSYFIQTMAYADLFVGVSCLVPTLSLLHYSTGVHESLTCQVFGYIISVLKSVSMACLACISVDRYLAITKPLSYNQLVTPCRLRICIILIWIYSCLIFLPSFFGWGKPGYHGDIFEWCATSWLTSAYFTGFIVCLLYAPAAFVVCFTYFHIFKICRQHTKEINDRRARFPSHEVDSSRETGHSPDRRYTMVLFRITSVFYMLWLPYIIYFLLESSRVLDNPTLSFLTTWLAISNSFCNCVIYSLSNSVFRLGLRRLSETMCTSCMCVKDQEAQEPKPRKRANSCSI	failed
MNGTYNTCGSSDLTWPPAIKLGFYAYLGVLLVLGLLLNSLALWVFCCRMQQWTETRIYMTNLAVADLCLLCTLPFVLHSLRDTSDTPLCQLSQGIYLTNRYMSISLVTAIAVDRYVAVRHPLRARGLRSPRQAAAVCAVLWVLVIGSLVARWLLGIQEGGFCFRSTRHNFNSMAFPLLGFYLPLAVVVFCSLKVVTALAQRPPTDVGQAEATRKAARMVWANLLVFVVCFLPLHVGLTVRLAVGWNACALLETIRRALYITSKLSDANCCLDAICYYYMAKEFQEASALAVAPRAKAHKSQDSLCVTLA	failed
MSVDPACPQSLPCFEASDCKESSPMPVICGPEENYPSLQMSSAEMPHTETVSPLPSSMDLLIQDSPDSSTSPKGKQPTSAEKSVAKKEDKVPVKKQKTRTVFSSTQLCVLNDRFQRQKYLSLQQMQELSNILNLSYKQVKTWFQNQRMKSKRWQKNNWPKNSNGVTQKASAPTYPSLYSSYHQGCLVNPTGNLPMWSNQTWNNSTWSNQTQNIQSWSNHSWNTQTWCTQSWNNQAWNSPFYNCGEESLQSCMQFQPNSPASDLEAALEAAGEGLNVIQQTTRYFSTPQTMDLFLNYSMNMQPEDV	failed
MYSGNRSGGHGYWDGGGAAGAEGPAPAGTLSPAPLFSPGTYERLALLLGSIGLLGVGNNLLVLVLYYKFQRLRTPTHLLLVNISLSDLLVSLFGVTFTFVSCLRNGWVWDTVGCVWDGFSGSLFGIVSIATLTVLAYERYIRVVHARVINFSWAWRAITYIWLYSLAWAGAPLLGWNRYILDVHGLGCTVDWKSKDANDSSFVLFLFLGCLVVPLGVIAHCYGHILYSIRMLRCVEDLQTIQVIKILKYEKKLAKMCFLMIFTFLVCWMPYIVICFLVVNGHGHLVTPTISIVSYLFAKSNTVYNPVIYVFMIRKFRRSLLQLLCLRLLRCQRPAKDLPAAGSEMQIRPIVMSQKDGDRPKKKVTFNSSSIIFIITSDESLSVDDSDKTNGSKVDVIQVRPL	failed
